From the supplement of paper PMC4967469
A lower IC50 marks a more sensitive line; fits outside the tested doses are given as limits. For AUC the same curve is integrated over the 256-fold range of doses and scaled to a fraction; the more sensitive the line, the further below 1. The top dose, if marked as inferred, was derived from the fitted curves, not read from the paper.

What follows are cell lines tested with COc1ncc(-c2ccc3nccc(-c4ccnnc4)c3c2)cc1NS(=O)(=O)c1ccc(F)cc1F [GSK2126458] (assay: Viability of human cancer cell lines after 72 h of drug (GDSC screen)). Details: top dose inferred.
Method: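 Human cancer cell lines in 384-well plates, medium with 10% serum, drug for 72 h over a 256-fold dose range (nine 2-fold or five 4-fold steps up to the top dose). Adherent lines were fixed and stained with the nucleic acid dye Syto60, suspension lines read with resazurin; signal relative to control wells, capped at 0 and 100%. One two-parameter sigmoid per drug and line, fitted in a mixed model over all curves with the slope shared within a line.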

Row | Cell Line | AUC | IC50 [nM]
1 | MKN1 (stomach, adherent, top dose 0.128 µM) | 0.736 | 39.3
2 | MKN28 (stomach, adherent, top dose 0.128 µM) | 0.925 | > 128
3 | MKN45 (stomach, adherent, top dose 0.128 µM) | 0.815 | 94.6
4 | ML-1 (thyroid, adherent, top dose 0.128 µM) | 0.848 | 121
5 | ML-2 (acute myeloid leukaemia, suspension, top dose 0.128 µM) | 0.185 | 1.05
6 | MLMA (hairy cell leukaemia, semi-adherent, top dose 0.128 µM) | 0.282 | 1.92
7 | MMAC-SF (melanoma, adherent, top dose 0.128 µM) | 0.79 | 59.8
8 | MN-60 (B-cell leukaemia, suspension, top dose 0.128 µM) | 0.407 | 4.39
9 | MOG-G-CCM (glioma, adherent, top dose 0.128 µM) | 0.619 | 18.1
10 | MOG-G-UVW (glioma, adherent, top dose 0.128 µM) | 0.68 | 25.1
11 | MOLM-13 (acute myeloid leukaemia, suspension, top dose 0.128 µM) | 0.288 | 2.11
12 | MOLP-8 (myeloma, suspension, top dose 0.128 µM) | 0.201 | 1.09
13 | MOLT-4 (lymphoblastic leukaemia, suspension, top dose 1.024 µM) | 0.168 | 8.3
14 | MOLT-13 (T-cell lymphoblastic leukaemia, suspension, top dose 0.128 µM) | 0.91 | > 128
15 | MONO-MAC-6 (acute myeloid leukaemia, suspension, top dose 0.128 µM) | 0.44 | 5.42
16 | MPP-89 (mesothelioma, adherent, top dose 0.128 µM) | 0.925 | > 128
17 | MRK-nu-1 (breast, suspension, top dose 0.128 µM) | 0.839 | 77
18 | MS751 (cervix, adherent, top dose 0.128 µM) | 0.973 | > 128
19 | MS-1 (small cell lung carcinoma, suspension, top dose 0.128 µM) | 0.588 | 13.6

Row | Cell Line | AUC | IC50 [nM]
20 | MSTO-211H (mesothelioma, adherent, top dose 0.128 µM) | 0.962 | > 128
21 | MY-M12 (leukaemia, suspension, top dose 0.128 µM) | 0.808 | 76.5
22 | MZ1-PC (pancreas, adherent, top dose 0.128 µM) | 0.398 | 3.91
23 | MZ2-MEL (melanoma, adherent, top dose 0.128 µM) | 0.473 | 6.66
24 | MZ7-mel (melanoma, adherent, top dose 0.128 µM) | 0.626 | 18.1
25 | Mewo (melanoma, adherent, top dose 0.128 µM) | 0.891 | > 128
26 | Mo-T (hairy cell leukaemia, suspension, top dose 0.128 µM) | 0.719 | 33.9
27 | NALM-6 (B-cell leukaemia, suspension, top dose 0.128 µM) | 0.146 | 0.834
28 | NAMALWA (Burkitt lymphoma, suspension, top dose 0.128 µM) | 0.296 | 2.38
29 | NB1 (neuroblastoma, semi-adherent, top dose 0.128 µM) | 0.917 | > 128
30 | NB5 (neuroblastoma, adherent, top dose 0.128 µM) | 0.789 | 57.5
31 | NB6 (neuroblastoma, adherent, top dose 0.128 µM) | 0.672 | 27
32 | NB7 (neuroblastoma, adherent, top dose 0.128 µM) | 0.525 | 9.37
33 | NB10 (neuroblastoma, adherent, top dose 0.128 µM) | 0.894 | > 128
34 | NB12 (neuroblastoma, adherent, top dose 0.128 µM) | 0.779 | 72
35 | NB13 (neuroblastoma, adherent, top dose 0.128 µM) | 0.913 | > 128
36 | NB14 (neuroblastoma, adherent, top dose 0.128 µM) | 0.97 | > 128
37 | NB17 (neuroblastoma, adherent, top dose 0.128 µM) | 0.814 | 83.4
